Results taken from PubChem BioAssay AID1460 (National Center for Advancing Translational Sciences (NCATS), 2008).
About 5,800 (2.1%) of roughly 270,000 compounds were called active. This list was built around the results that the source calls inconclusive (neither active nor inactive); the mix of calls is not that of the screen. The call rests on the fitted dose curve; in most records, active means well fitted inhibition curve with a large enough effect; inconclusive means small, poorly fitted or top-dose-only effect; inactive means flat fitted curve, though single readings scatter. Potencies of inconclusive entries are doubtful fits and often do not repeat.

The compounds below were run against Microtubule-associated protein tau (Homo sapiens) (UniProt P10636) (assay: qHTS for Inhibitors of Tau Fibril Formation, Thioflavin T Binding). Details: recombinant tau K18 P301L (four-repeat tau fragment), heparin-induced fibrillization, ThT fluorescence; series mostly up to 57.4 µM; activity, negative = inhibition: at the top concentration.
Outline: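 Tau K18 P301L fragment (15 uM unlabeled plus 0.24 uM Alexa 594-labeled) in 100 mM sodium acetate pH 7 with compound, fibrillization induced by 20 uM heparin for 6 hr at 37 C. Thioflavin T (30 uM) added, fluorescence read after 1 hr (ex 450, em 510 nm).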
Further: nearly all actives have a fitted effect of over 55% in size.
On the % scale 0 is the no-effect control and ±100 the full control effect; potency means the concentration at half of the fitted maximal effect; tags describe the fitted curve by direction and shape.

UniProt P10636, sequence (P10636 whole entry, looked up, the tested form may be a part): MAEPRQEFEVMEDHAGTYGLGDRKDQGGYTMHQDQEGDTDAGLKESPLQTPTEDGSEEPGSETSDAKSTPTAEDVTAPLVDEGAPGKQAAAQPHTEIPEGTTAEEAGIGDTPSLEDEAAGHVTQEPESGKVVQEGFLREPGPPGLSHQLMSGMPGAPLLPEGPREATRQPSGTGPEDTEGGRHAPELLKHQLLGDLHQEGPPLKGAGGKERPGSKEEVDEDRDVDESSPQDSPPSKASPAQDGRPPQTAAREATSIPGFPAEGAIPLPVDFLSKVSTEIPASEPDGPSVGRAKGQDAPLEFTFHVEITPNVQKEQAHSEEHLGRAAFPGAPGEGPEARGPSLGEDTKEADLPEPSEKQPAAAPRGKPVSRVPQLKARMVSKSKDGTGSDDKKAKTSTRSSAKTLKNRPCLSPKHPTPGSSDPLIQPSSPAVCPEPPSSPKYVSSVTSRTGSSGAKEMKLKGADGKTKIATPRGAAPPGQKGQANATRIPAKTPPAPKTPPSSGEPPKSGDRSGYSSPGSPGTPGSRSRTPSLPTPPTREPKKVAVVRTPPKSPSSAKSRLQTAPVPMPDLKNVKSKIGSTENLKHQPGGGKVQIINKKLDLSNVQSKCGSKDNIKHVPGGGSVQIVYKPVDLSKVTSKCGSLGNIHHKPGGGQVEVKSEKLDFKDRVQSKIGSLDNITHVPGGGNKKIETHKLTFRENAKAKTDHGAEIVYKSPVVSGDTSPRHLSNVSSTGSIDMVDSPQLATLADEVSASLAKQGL

SMILES | Potency | activity, negative = inhibition
COc1ccc(NC(=O)c2cc3cccc(OC)c3oc2=Nc2ccc(C(=O)O)cc2)cc1OC | active: 14.1 µM | –
CC(=O)c1ccc(NC(=S)Nc2ccc(N3CCOCC3)cc2)cc1 | inconclusive: 12.6 µM [inhibitor, partial curve] | –
ClCc1nnc(-c2cc3c(s2)CCCC3)o1 | inconclusive: 11.2 µM [inhibitor, partial curve] | –
CCc1cc2c3c(c(=O)oc2cc1O)CCCC3 | inconclusive: 14.1 µM [inhibitor, partial curve] | –
CCOC(=O)C1=C(NC#N)OC(C)=C(C)C1c1ccc(O)cc1 (centres undefined) | inconclusive: 39.8 µM [inhibitor, single point] | –
Cc1ccc(-c2csc3ncnc(NS(=O)(=O)c4ccc(Cl)cc4)c23)cc1 | inconclusive: 31.6 µM [inhibitor, single point] | –
COc1cc(NC(=O)N2CCN(c3cc(-c4noc(C)n4)ccc3C)CC2)cc(OC)c1OC | – | inactive: -6.25%
CCn1cc(SCC(=O)NCc2ccc3c(c2)OCO3)c2ccccc21 | inconclusive: 39.8 µM [inhibitor, single point] | –
NC(=O)[C@H]1CC2(CC(c3cccc(NC(=O)CC(c4ccccc4)c4ccccc4)c3)=NO2)CN1C(=O)c1ccccc1C(=O)c1ccccc1 (some centres undefined) | – | inactive: -9.51%
O=c1c2ccccc2nc(COc2ccccc2)n1/N=C/c1cn[nH]c1-c1ccccc1 | inconclusive: 25.1 µM [inhibitor, single point] | –
O=C(/C=C/c1ccccc1)NC(=O)c1ccccc1O | inconclusive: 25.1 µM [inhibitor, partial curve, poor fit] | –
CC(=O)c1ccc(NC(=O)COCc2cc(-c3ccco3)on2)cc1 | inconclusive: 5.01 µM [inhibitor, full curve, poor fit] | –
Cc1cc(OC(=O)c2c(C)cc(O)cc2O)cc(O)c1C(=O)O | inactive | –
COC(=O)c1ccc(NC(=S)NCC2CC2)cc1 | – | inactive: 3.37%
CCN(CC)CCOC(=O)C1(c2ccc([N+](=O)[O-])cc2)CCCC1 | inactive | –
O=C(CN1CCN(C2CCCCC2)CC1)NCCC1=CCCCC1 | – | inactive: -3.99%
Fc1ccccc1Cn1c(-c2ccccc2)nc2ccccc21 | – | inactive: -18%
CCOC(=O)c1ccc(NC(=O)COc2ccccc2CNCCc2ccccc2)cc1 | inconclusive: 3.55 µM [activator, partial curve] | –
Cc1ccc(C)c(Cn2c3ccccc3c3cnn(CC(=O)NCc4ccccc4)c(=O)c32)c1 | inconclusive: 44.7 µM [activator, single point] | –
Cc1ccc(NC(=O)CSc2nc(-c3ccco3)nc3cc(=O)[nH]n23)cc1C | inconclusive: 15.8 µM [inhibitor, single point] | –
Nn1c(SCC(=O)Nc2ccc3c(c2)OCO3)nnc1-c1ccccc1 | inconclusive: 15.8 µM [inhibitor, partial curve] | –
CC(C)(O)/C=C1/Oc2ccccc2C1N1CCCCC1 (centres undefined) | inconclusive: 39.8 µM [inhibitor, single point] | –

SMILES | Potency | activity, negative = inhibition
COC(=O)C1=C(CN2CCc3ccccc32)NC(=O)NC1c1cc(C)ccc1C (centres undefined) | inconclusive: 15.8 µM [inhibitor, partial curve] | –
Cc1cccc2nc(-c3cccc(NS(=O)(=O)c4ccccc4)c3)cn12 | inconclusive: 6.31 µM [inhibitor, partial curve] | –
Cc1ccc(C)c(CSc2nc3ccncc3n2CC(=O)Nc2ccc(N(C)C)cc2)c1 | inconclusive: 10 µM [inhibitor, partial curve] | –
CCOc1ccccc1NC(=O)Cn1ccn(Cc2ccc(C)cc2)c(=O)c1=O | – | inactive: -11.3%
CCC(C)(C)NC(=O)C(c1cccn1C)N(C(=O)Cn1nnc2ccccc21)c1ccc(OC)cc1OC (centres undefined) | inconclusive: 0.0631 µM [inhibitor, full curve, poor fit] | –
CN(C(=O)COC(=O)c1cc(NS(=O)(=O)c2cc([N+](=O)[O-])ccc2Cl)ccc1O)C1CCCCC1 | inconclusive: 17.8 µM [inhibitor, single point] | –
NCCCCC(NC(CCc1ccccc1)C(=O)O)C(=O)N1CCCC1C(=O)O (centres undefined) | – | inactive: -0.507%
COc1ccc(-c2cc(=Nc3c(C)n(C)n(-c4ccccc4)c3=O)c3ccccc3o2)cc1 | inconclusive: 17.8 µM [inhibitor, partial curve] | –
O=C(COc1ccccc1)NCC(=O)Nc1ccc(S(=O)(=O)NCc2ccco2)cc1 | – | inactive: 1.5%
COc1cc(C(=O)Nc2nnc(C(C)(C)C)s2)c([N+](=O)[O-])cc1OC | – | inactive: -1.7%
Cc1ccc(Cn2nnc3c(=O)[nH]c(C4CCN(S(=O)(=O)c5cc(C)ccc5C)CC4)nc32)cc1 | – | inactive: -14.3%
Cc1cccc(NC(=S)N/N=C/c2ccc(Cl)c([N+](=O)[O-])c2)c1 | inconclusive: 5.62 µM [inhibitor, partial curve] | –
CC(Nc1cccc2ccccc12)C(=O)N/N=C/c1ccc([N+](=O)[O-])cc1 (centres undefined) | inconclusive: 6.31 µM [inhibitor, partial curve] | –
NC(=O)CC(NC(=O)Cc1cccc2ccccc12)c1ccc(N2CCN(c3ccccc3)CC2)c([N+](=O)[O-])c1 (centres undefined) | inconclusive: 7.94 µM [inhibitor, full curve] | –
Cc1ccc(C(=O)/C=C/c2cn(CN3CCN(C)CC3)c3ccccc23)cc1 | inconclusive: 14.1 µM [inhibitor, partial curve] | –
COc1ccc(/C=N/Nc2c(Cl)cc(Cl)cc2Cl)cc1CN1CCOCC1 | – | inactive: -17.3%
Cc1ccc(N2C(=O)CC(Nc3ccc(Cl)c(S(=O)(=O)N(C)C)c3)C2=O)c(C)c1 (centres undefined) | – | inactive: 2.45%
O=C(Nc1ccc(Cl)cc1)N1CCN(c2ccccc2)CC1 | – | inactive: -17.4%
COc1ccc2c(c1)c1c(c(=O)n(-c3cccc(Cl)c3)c(=O)n1CC(=O)N1CCCC1)n2C | – | inactive: 9.27%
CCOc1ccc2[nH]c(=O)c(=O)[nH]c2c1 | inconclusive: 28.2 µM [inhibitor, single point] | –
N#CC1=C(N)OC2=C(C(=O)CCC2)[C@]12C(=O)N(CC(N)=O)c1ccccc12 | – | inactive: -6.28%
O=C(Nc1ccc(Cl)cc1)/C(=C/c1ccc([N+](=O)[O-])cc1)c1nc2ccccc2s1 | active: 14.1 µM | –
